{
  "source": "the supplement of paper PMC10338343",
  "note": "± gives the standard deviation. The entries are a selection whose mix differs from that of the whole data set.",
  "data": [
    {"test_system": "MIWI (PIWIL1) piRISC loaded with L1MC piRNA (30 nt)", "assay": "pre-steady-state target cleavage rate (min^-1); higher = faster piRNA-guided slicing of the target", "conditions": "guide: L1MC piRNA 5'p-UAACUAAAUACUAUGCAAGCUGUAGGUCCU; auxiliary factor: 500 nM mouse GTSF1", "protocol": "(§1)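 Cleave-'n-Seq: a library of target RNAs (target site embedded in constant flanks, ACAGCATTCCGCGTTAGTGATATCCG... 5' flank; DNA-blocked outside the site) at 0.1 nM was incubated with 1 nM active mouse MILI or MIWI piRISC (synthetic 5'-monophosphorylated piRNA guide) with or without 500 nM mouse GTSF1 at 33 °C for 1 min to 16 h. Uncleaved targets were sequenced and normalised to non-target controls, and the pooled three trials were fitted to a burst-and-steady-state model to give the pre-steady-state cleavage rate (min^-1; k3 is constrained to at most 1e-4). Sequence is the target site only; target names encode pairing extent (gX:gY) and contiguous / 1-mismatch / 2-mismatch / bulge geometry. Fits with R² ≤ 0 are excluded.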", "values": [
      {"sequence": "UCCUGGAUGAGCUUGCAUAGUAUUUACAUA", "pre-steady-state target cleavage rate": "0.0877 ± 0.018"},
      {"sequence": "UCCUCCUACAGCUUGCAUAGUAUUCUAGUUA", "pre-steady-state target cleavage rate": "0.721 ± 0.072"},
      {"sequence": "UCCUGGAUCAGCUUGCAUAGUAUCUAGUUA", "pre-steady-state target cleavage rate": "0.686 ± 0.029"},
      {"sequence": "UCCUCGAACAGCUUGCAUAGUAUUUAGAAA", "pre-steady-state target cleavage rate": "0.474 ± 0.043"},
      {"sequence": "UCCUCCUACAGCUUGCAUUCUAUUUAGUUA", "pre-steady-state target cleavage rate": "0.272 ± 0.024"},
      {"sequence": "UCGACCUAGAGCUUGCAUAGUAUUAAGUUA", "pre-steady-state target cleavage rate": "0.618 ± 0.058"},
      {"sequence": "AGGACCUAGUGCUUGCAUAGUAUUUAGUUA", "pre-steady-state target cleavage rate": "0.852 ± 0.07"},
      {"sequence": "AGGACCUACAGCUUGGAUAGUAAUUAGUUA", "pre-steady-state target cleavage rate": "0.857 ± 0.054"},
      {"sequence": "UCCACCUUCAGCUUGCAUAGUUUUUAGUUA", "pre-steady-state target cleavage rate": "0.271 ± 0.023"},
      {"sequence": "UCCUGGUACAGCUUGACAUAGUAUUUAGUUA", "pre-steady-state target cleavage rate": "0.271 ± 0.027"},
      {"sequence": "UCCUGGAUCAGGUUGCAUACUAUUUAGUUA", "pre-steady-state target cleavage rate": "0.1 ± 0.01"},
      {"sequence": "UCCUGGAACAGCUUGCAUAGUAUUUAGUAUA", "pre-steady-state target cleavage rate": "0.808 ± 0.056"},
      {"sequence": "UCCUGGAUCAGCAUGCAUAGUAUUUACUUA", "pre-steady-state target cleavage rate": "0.313 ± 0.021"},
      {"sequence": "UCCAGCUACUGCUUGCAUAGUAUUUAGUUA", "pre-steady-state target cleavage rate": "0.36 ± 0.035"},
      {"sequence": "UCCUCCAACAGCAUGCAUAGUAUUUAGUUA", "pre-steady-state target cleavage rate": "1.11 ± 0.051"},
      {"sequence": "UCCACCAUGAGCUUGCAUAGUAUUUAGUAA", "pre-steady-state target cleavage rate": "0.811 ± 0.088"},
      {"sequence": "UCCACCUACAGCUUGCAUAGUAUAUUAGUUA", "pre-steady-state target cleavage rate": "0.828 ± 0.05"},
      {"sequence": "AGGACCUAGUGCUUGCAUAGUAUUUUCAAA", "pre-steady-state target cleavage rate": "0.0853 ± 0.021"},
      {"sequence": "UCCUGGUACAGCAUGCAUAGUAUUUAGUUA", "pre-steady-state target cleavage rate": "0.936 ± 0.061"},
      {"sequence": "UCCUGGAUCAGCUUGAAUAGUAUUUAGUUA", "pre-steady-state target cleavage rate": "1.3 ± 0.075"},
      {"sequence": "UCGACCUACAGCUUCCAUAGUAUUUUGUUA", "pre-steady-state target cleavage rate": "0.0549 ± 0.02"}
    ]},
    {"test_system": "MIWI (PIWIL1) piRISC loaded with L1MC piRNA (30 nt)", "assay": "pre-steady-state target cleavage rate (min^-1); MIWI and MILI are mouse PIWI proteins and EfPiwi is from a freshwater sponge; tags in brackets are library labels; higher = faster piRNA-guided slicing of the target", "conditions": "guide: L1MC piRNA 5'p-UAACUAAAUACUAUGCAAGCUGUAGGUCCU; auxiliary factor: none (no GTSF1)", "protocol": "as §1", "values": [
      {"sequence": "UCCUGGAUGAGCUUGCAUAGUAUUUACAUA", "pre-steady-state target cleavage rate": "0.00668 ± 0.0035"},
      {"sequence": "UCCUCCUACAGCUUGCAUAGUAUUCUAGUUA", "pre-steady-state target cleavage rate": "0.0169 ± 0.0046"},
      {"sequence": "UCCUGGAUCAGCUUGCAUAGUAUCUAGUUA", "pre-steady-state target cleavage rate": "0.0357 ± 0.008"},
      {"sequence": "UCCUCGAACAGCUUGCAUAGUAUUUAGAAA", "pre-steady-state target cleavage rate": "0.00694 ± 0.0025"},
      {"sequence": "UCCUCCUACAGCUUGCAUUCUAUUUAGUUA", "pre-steady-state target cleavage rate": "0.00656 ± 0.0024"},
      {"sequence": "UCGACCUAGAGCUUGCAUAGUAUUAAGUUA", "pre-steady-state target cleavage rate": "0.0195 ± 0.0029"},
      {"sequence": "AGGACCUAGUGCUUGCAUAGUAUUUAGUUA", "pre-steady-state target cleavage rate": "0.0602 ± 0.011"},
      {"sequence": "AGGACCUACAGCUUGGAUAGUAAUUAGUUA", "pre-steady-state target cleavage rate": "0.0269 ± 0.0063"},
      {"sequence": "UCCACCUUCAGCUUGCAUAGUUUUUAGUUA", "pre-steady-state target cleavage rate": "0.0207 ± 0.0037"},
      {"sequence": "UCCUGGAUCAGGUUGCAUACUAUUUAGUUA", "pre-steady-state target cleavage rate": "0.00531 ± 0.0018"},
      {"sequence": "UCCUGGAACAGCUUGCAUAGUAUUUAGUAUA", "pre-steady-state target cleavage rate": "0.0146 ± 0.0047"},
      {"sequence": "UCCUGGAUCAGCAUGCAUAGUAUUUACUUA", "pre-steady-state target cleavage rate": "0.0104 ± 0.0021"},
      {"sequence": "UCCAGCUACUGCUUGCAUAGUAUUUAGUUA", "pre-steady-state target cleavage rate": "0.0249 ± 0.0028"},
      {"sequence": "UCCUCCAACAGCAUGCAUAGUAUUUAGUUA", "pre-steady-state target cleavage rate": "0.0217 ± 0.0039"},
      {"sequence": "UCCACCAUGAGCUUGCAUAGUAUUUAGUAA", "pre-steady-state target cleavage rate": "0.0228 ± 0.0048"},
      {"sequence": "UCCACCUACAGCUUGCAUAGUAUAUUAGUUA", "pre-steady-state target cleavage rate": "0.0121 ± 0.0033"},
      {"sequence": "AGGACCUAGUGCUUGCAUAGUAUUUUCAAA", "pre-steady-state target cleavage rate": "0.00244 ± 0.0023"},
      {"sequence": "UCCUGGUACAGCAUGCAUAGUAUUUAGUUA", "pre-steady-state target cleavage rate": "0.0248 ± 0.0059"},
      {"sequence": "UCCUGGAUCAGCUUGAAUAGUAUUUAGUUA", "pre-steady-state target cleavage rate": "0.0225 ± 0.0059"}
    ]}
  ]
}
